Drawing on the supplement of paper PMC9446081, this text covers relative growth for 61 compounds.

The whole screen tested about 39,000 compounds, of which about 220 (0.56%) showed activity. The list shows a part of the results.
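Further: static incubation at 37 °C against the wild-type strain, values averaged over two biological replicates.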

The subject of the test is Escherichia coli K-12 BW25113. The experiment in a line: relative growth (OD600 normalised to plate interquartile mean) (fraction); higher = less growth inhibition, active = 0.2 or less. The conditions noted are these: 50 µM; LB; incubation time: overnight (16-24 h).
Regarding `COc1ccc(CN(C)C[C@@H]2Oc3c(NS(C)(=O)=O)cccc3C(=O)N([C@H](C)CO)C[C@@H]2C)cc1`, the relative growth was inactive: 1.02.

Consider `CC(C)NC(=O)N[C@@H]1C=C[C@H](CC(=O)O)O[C@@H]1CO`, for which the relative growth was inactive: 0.978.

For the compound `C[C@H](CO)N1C[C@H](C)[C@@H](CN(C)C(=O)CCN2CCCCC2)Oc2ncc(C#CCN(C)C)cc2C1=O`, the relative growth is inactive: 0.978.

Take `C[C@@H]1CCCCO[C@H](CN(C)C(=O)Nc2ccc(F)cc2)[C@H](C)CN([C@H](C)CO)C(=O)c2cc(NS(=O)(=O)c3ccc(Cl)cc3)ccc2O1`: the relative growth was inactive: 1.01.

For `CC(C)NC(=O)Nc1ccc2c(c1)C(=O)N(C)[C@@H]1CC[C@H](CC(=O)NCc3ccc(F)cc3)O[C@@H]1CO2`, the relative growth was inactive: 1.02.

Consider `COc1ccc(S(=O)(=O)N(C)C[C@@H]2Oc3ccc(NS(=O)(=O)c4ccc(C)cc4)cc3C(=O)N([C@@H](C)CO)C[C@@H]2C)cc1`, for which the relative growth was inactive: 1.02.

Take `COc1ccc(CN(C)C[C@@H]2OCCCC[C@H](C)Oc3ccc(NC(=O)Nc4ccc5c(c4)OCO5)cc3C(=O)N([C@H](C)CO)C[C@H]2C)cc1`: the relative growth was inactive: 1.02.

On to `Cc1cc(C(C)(C)C)c(O)c(C(C)(C)C)c1`, for which the relative growth was inactive: 1.02.

Take `C[C@@H]1CN([C@@H](C)CO)C(=O)c2cccc(NC(=O)C3CC3)c2O[C@@H]1CN(C)C(=O)Nc1ccc2c(c1)OCO2`: the relative growth is inactive: 0.989.

With `C[C@@H](NC(=O)[C@@H]1CCCC[C@H]1C(=O)O)c1ccccc1.C[C@@H](NC(=O)[C@H]1CCCC[C@H]1C(=O)O)c1ccccc1`, the relative growth is inactive: 1.01.

As for `CCS(=O)(=O)N1C[C@]2(CN(C2)C(=O)Nc2c(noc2C)C)c2c(n(c3cc(ccc23)OC)C)[C@H]1CO`, the relative growth is inactive: 1.03.

Take `COc1ccc([C@@H]([C@H](Cc2ccccc2)OC(C)=O)N2Cc3c(noc3[C@@H](O)c3ccccc3)[C@@H]2Cc2ccccc2)cc1`: the relative growth is inactive: 1.01.

Consider `COCCNC(=O)C[C@H]1C[C@@H]2c3cc(NC(=O)Nc4ccc(C(F)(F)F)cc4)ccc3O[C@@H]2[C@@H](CO)O1`, for which the relative growth is inactive: 0.924.

`Cc1ccccc1-c1ccc2c(c1)O[C@H](CN(C)C(=O)Nc1ccc(C(F)(F)F)cc1)[C@H](C)CN([C@H](C)CO)S2(=O)=O`: the relative growth was inactive: 0.961.

For the compound `C[C@@H]1CN([C@H](C)CO)C(=O)Cc2cc(NS(=O)(=O)c3cn(C)cn3)ccc2O[C@H]1CN(C)Cc1ccc(C(=O)Nc2ccccc2N)cc1`, the relative growth is inactive: 0.999.

For `COc1ccc(CN(C)C[C@@H]2OCCCC[C@@H](C)Oc3ccc(NC(=O)Nc4ccc(F)cc4)cc3C(=O)N([C@H](C)CO)C[C@@H]2C)cc1`, the relative growth is inactive: 0.998.

`COc1ccc2c(c1)OCC(Cc1ccc(OC)c(O)c1)C2=O` (stereo unspecified): the relative growth is inactive: 0.839.

In the case of `COc1ccc(NC(=O)Nc2ccc3c(c2)C(=O)N([C@H](C)CO)C[C@H](C)[C@H](CN(C)C(=O)c2ccccc2)OCCCC[C@@H](C)O3)cc1`, the relative growth was inactive: 0.99.

For the compound `C[C@@H]1CN([C@@H](C)CO)C(=O)c2cc(NS(=O)(=O)c3cccs3)ccc2O[C@@H](C)CCCCO[C@@H]1CN(C)Cc1ccc(C(=O)O)cc1`, the relative growth is inactive: 1.01.

As for `CO[C@@H]1CN(C)C(=O)c2ccc(NC(=O)C3CCOCC3)cc2OC[C@H](C)N(Cc2cccnc2)C[C@@H]1C`, the relative growth is inactive: 1.03.

As for `Cc1noc(C)c1S(=O)(=O)N(C)C[C@@H]1Oc2ccc(NS(=O)(=O)c3cccs3)cc2C(=O)N([C@@H](C)CO)C[C@@H]1C`, the relative growth was inactive: 1.01.

As for `Cc1noc(C)c1S(=O)(=O)N(C)C[C@H]1OCCCC[C@@H](C)Oc2ccc(NC(=O)Nc3ccccc3)cc2C(=O)N([C@@H](C)CO)C[C@@H]1C`, the relative growth was inactive: 1.01.

`C[C@H](O)[C@H](O)[C@@H](O)[C@@H](O)/C=N/NC(=O)CCCCCCC(=O)NO`: the relative growth was inactive: 1.02.

In the case of `COc1ccc(S(=O)(=O)N(C)C[C@@H]2Oc3ccc(N(C)C)cc3C(=O)N([C@H](C)CO)C[C@@H]2C)cc1`, the relative growth was inactive: 0.986.

Consider `CN(C)Cc1cn(CC[C@H]2CC[C@H](NC(=O)Cc3cccnc3)[C@@H](CO)O2)nn1`, for which the relative growth was inactive: 0.993.

Turning to `O=C(C[C@@H]1CC[C@@H](NC(=O)CN2CCOCC2)[C@@H](CO)O1)NC1CCC1`, the relative growth is inactive: 1.02.

For `C[C@@H]1CN([C@H](C)CO)C(=O)c2cc(NC(=O)NC3CCCCC3)ccc2O[C@@H](C)CCCCO[C@H]1CN(C)S(=O)(=O)c1ccccc1`, the relative growth is inactive: 1.02.

As to `C[C@H]1CN([C@@H](C)CO)C(=O)Cc2cc(NC(=O)c3ccncc3)ccc2O[C@H]1CN(C)S(=O)(=O)c1cn(C)cn1`, the relative growth is inactive: 0.971.

Turning to `C[C@@H]1CCCCO[C@@H](CN(C)C(=O)Nc2cccc3ccccc23)[C@H](C)CN([C@H](C)CO)C(=O)c2cc(NC(=O)Nc3ccc4c(c3)OCO4)ccc2O1`, the relative growth is inactive: 1.

In the case of `O=C(C[C@H]1C=C[C@H](NC(=O)c2ccc(F)cc2)[C@@H](CO)O1)NCc1ccncn1`, the relative growth is inactive: 0.976.

For `Cc1noc(C)c1NC(=O)N(C)C[C@@H]1Oc2c(NC(=O)Nc3ccc(C(F)(F)F)cc3)cccc2C(=O)N([C@@H](C)CO)C[C@H]1C`, the relative growth is inactive: 1.

Consider `OC1(Cn2ccnc2)CCNCC1`, for which the relative growth is inactive: 0.99.

With `C[C@H](CO)N1C[C@H](C)[C@@H](CN(C)C(=O)Nc2ccccc2)OCCCC[C@H](C)Oc2ccc(NC(=O)Nc3ccc(F)cc3)cc2C1=O`, the relative growth was inactive: 1.05.

Take `COc1ccc(S(=O)(=O)N(C)C[C@H]2Oc3ccc(NS(=O)(=O)c4ccccc4)cc3C(=O)N([C@@H](C)CO)C[C@H]2C)cc1`: the relative growth is inactive: 1.02.

Regarding `COCC#Cc1ccc2c(c1)O[C@H](CN(C)C(=O)COC)[C@@H](C)CN([C@@H](C)CO)S2(=O)=O`, the relative growth was inactive: 1.

`NCCOc1ccccc1Cc1ccccc1`: the relative growth is inactive: 0.945.

With `CCNc1nc(NCC)nc(C(=O)OCCO)n1`, the relative growth is inactive: 1.01.

As to `C[C@H](CO)N1C[C@H](C)[C@H](CN(C)Cc2ccc(C(F)(F)F)cc2)Oc2ccc(NC(=O)Cc3cn(C)c4ccccc34)cc2CC1=O`, the relative growth was inactive: 1.04.

For `CC(C)NC(=O)N(C)C[C@@H]1Oc2ccc(NC(=O)NC3CCCCC3)cc2C(=O)N([C@H](C)CO)C[C@H]1C`, the relative growth was inactive: 0.987.

For `Cc1noc(C)c1NC(=O)N[C@@H]1CC[C@@H](CC(=O)N2CCN(C)CC2)O[C@H]1CO`, the relative growth is inactive: 1.

With `C[C@@H]1CN([C@H](C)CO)C(=O)c2cc(NC(=O)c3ccncc3)ccc2O[C@H]1CN(C)C(=O)Nc1ccc2c(c1)OCO2`, the relative growth was inactive: 0.982.

In the case of `COCCOC(=O)N1C(=O)[C@@]2(c3ccccc31)[C@H](c1ccc(O)cc1)N1[C@H](c3ccccc3)[C@H](c3ccccc3)OC(=O)[C@H]1[C@@H]2C(=O)N1CCc2cc(OC)c(OC)cc2C1`, the relative growth is inactive: 0.982.

On to `C=CCn1c(O)c(C#N)c(C)cc1=O`, for which the relative growth was inactive: 1.03.

With `C[C@@H]1CCCCO[C@@H](CN(C)S(=O)(=O)c2cccs2)[C@H](C)CN([C@@H](C)CO)C(=O)c2cc(NC(=O)NC3CCCCC3)ccc2O1`, the relative growth was inactive: 1.01.

On to `CN1CCN([C@@H](CNC(=O)C(=O)NCc2ccco2)c2ccc3c(c2)OCO3)CC1`, for which the relative growth was inactive: 1.01.

In the case of `Cc1ccc(-c2cnc3c(c2)C(=O)N([C@H](C)CO)C[C@@H](C)[C@@H](CN(C)C(=O)Cc2ccncc2)O3)cc1`, the relative growth was inactive: 1.

As for `C[C@H](CO)N1C[C@H](C)[C@@H](CN(C)C(=O)Cc2ccccn2)Oc2cc(-c3ccc(C(=O)N(C)C)cc3)ccc2S1(=O)=O`, the relative growth was inactive: 1.02.

On to `O=C(C[C@@H]1C[C@H]2c3cc(NC(=O)Nc4ccccc4F)ccc3O[C@H]2[C@H](CO)O1)NCc1ccc(Oc2ccccc2)cc1`, for which the relative growth was inactive: 0.983.

With `COc1ccc(CN(C)C[C@H]2OCCCC[C@@H](C)Oc3ccc(NC(=O)Nc4cccc5ccccc45)cc3C(=O)N([C@@H](C)CO)C[C@H]2C)cc1`, the relative growth is inactive: 0.797.

For `C[C@@H]1CN([C@H](C)CO)C(=O)Cc2cc(NS(=O)(=O)c3ccccc3)ccc2O[C@@H]1CN(C)S(=O)(=O)c1cn(C)cn1`, the relative growth is inactive: 1.01.

With `Cc1noc(C)c1NC(=O)N(C)C[C@H]1Oc2c(NC(=O)c3ccncc3)cccc2C(=O)N([C@@H](C)CO)C[C@H]1C`, the relative growth is inactive: 0.964.

For `CCS(=O)(=O)Nc1ccc2c(c1)C(=O)N(C)[C@@H]1CC[C@@H](CC(=O)N[C@H]3CCN(Cc4ccccc4)C3)O[C@H]1CO2`, the relative growth is inactive: 0.968.

Take `CC(=O)OC(CC(=O)O)[N+](C)(C)C.[Cl-]` (stereo unspecified): the relative growth is inactive: 1.06.

For `Cc1noc(C)c1NC(=O)Nc1ccc2c(c1)CC(=O)N([C@H](C)CO)C[C@H](C)[C@@H](CN(C)S(=O)(=O)c1cccs1)O2`, the relative growth was inactive: 1.02.

Consider `O=C(O)c1cc(=O)cc(C(=O)O)o1`, for which the relative growth is inactive: 0.996.

As for `CNc1ncnc(Cl)c1N`, the relative growth is inactive: 1.

As to `CO[C@@H]1CN(C)C(=O)c2cc(NS(=O)(=O)c3cn(C)cn3)ccc2OC[C@H](C)N(CCC(F)(F)F)C[C@@H]1C`, the relative growth was inactive: 0.994.

In the case of `CC(=O)NCCCC[C@@H]1NC(=O)[C@@H]2C[C@H](C(=O)NCCCCCNC(=O)CS)[C@H](c3cccc(OCCO)c3)N2C1=O`, the relative growth is inactive: 0.924.

Take `C[C@@H]1CN([C@@H](C)CO)C(=O)c2cc(NC(=O)CCCN(C)C)ccc2O[C@H]1CN(C)S(=O)(=O)c1cccs1`: the relative growth is inactive: 1.

In the case of `C[C@H](CO)N1C[C@H](C)[C@H](CN(C)Cc2ccc(C(=O)O)cc2)Oc2ccc(NC(=O)CCCN(C)C)cc2C1=O`, the relative growth is inactive: 1.01.

On to `C[C@H](CO)N1C[C@H](C)[C@@H](CN(C)C(=O)Nc2ccc(F)cc2)Oc2ccc(NS(C)(=O)=O)cc2CC1=O`, for which the relative growth is inactive: 0.992.
